Measurements as given in publication PMC4336329 (PLoS ONE, 2015).
Among all 310,000 compounds or so, about 14,000 (4.5%) showed an effect of 50% or more. The effect is printed as a negative number. This is one part of the list.

Each compound was assayed against human ether-à-go-go-related gene (hERG) potassium channel (human, UniProt Q12809) (assay: primary screen, population patch clamp on CHO cells stably expressing hERG).
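Note: peak tail current of the secondary pulse compared with the same well before compound.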

Chain of human ether-à-go-go-related gene (hERG) potassium channel (Q12809 whole entry, looked up): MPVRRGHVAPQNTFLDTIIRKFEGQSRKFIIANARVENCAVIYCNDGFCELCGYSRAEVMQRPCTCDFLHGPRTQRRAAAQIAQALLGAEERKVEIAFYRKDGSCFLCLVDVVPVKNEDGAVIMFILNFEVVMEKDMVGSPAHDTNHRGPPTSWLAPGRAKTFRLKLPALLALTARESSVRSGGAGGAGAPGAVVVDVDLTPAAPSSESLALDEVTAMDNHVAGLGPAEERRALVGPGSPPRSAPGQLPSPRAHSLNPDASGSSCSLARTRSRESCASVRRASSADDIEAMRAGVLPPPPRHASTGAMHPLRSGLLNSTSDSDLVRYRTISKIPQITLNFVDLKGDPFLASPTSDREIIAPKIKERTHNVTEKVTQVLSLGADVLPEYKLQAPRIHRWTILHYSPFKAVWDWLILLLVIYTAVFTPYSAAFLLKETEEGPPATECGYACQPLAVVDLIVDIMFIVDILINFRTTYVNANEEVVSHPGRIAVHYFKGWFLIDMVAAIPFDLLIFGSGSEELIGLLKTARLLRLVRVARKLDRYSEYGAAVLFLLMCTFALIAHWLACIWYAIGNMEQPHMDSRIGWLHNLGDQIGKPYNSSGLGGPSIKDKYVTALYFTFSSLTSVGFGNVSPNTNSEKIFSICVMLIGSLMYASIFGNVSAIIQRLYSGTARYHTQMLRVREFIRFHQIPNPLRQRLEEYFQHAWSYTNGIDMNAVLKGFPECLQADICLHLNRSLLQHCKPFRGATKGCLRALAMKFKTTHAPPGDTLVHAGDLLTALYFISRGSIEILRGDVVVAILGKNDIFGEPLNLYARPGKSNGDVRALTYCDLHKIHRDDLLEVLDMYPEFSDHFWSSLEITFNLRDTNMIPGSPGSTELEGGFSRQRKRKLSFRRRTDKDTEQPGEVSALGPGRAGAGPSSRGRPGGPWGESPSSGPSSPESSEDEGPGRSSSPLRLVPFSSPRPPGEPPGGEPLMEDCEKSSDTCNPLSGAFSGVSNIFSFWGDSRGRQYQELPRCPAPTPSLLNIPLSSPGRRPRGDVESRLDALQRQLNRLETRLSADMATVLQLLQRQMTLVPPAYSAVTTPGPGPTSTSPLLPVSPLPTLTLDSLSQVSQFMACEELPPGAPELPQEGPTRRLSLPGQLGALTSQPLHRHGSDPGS

Question: For Cc1oc(=O)c(NC(=O)c2ccccc2)cc1C(N)=O, which “hERG current change (%, negative = inhibition) at 10uM” value is on record?
Answer: The value was 23.3%.

Question: COC(=O)c1cc(Br)c(=O)n(CCN(C(C)C)C(C)C)c1 was tested. Which “hERG current change (%, negative = inhibition) at 10uM” value did it give?
Answer: Its value is -21.1%.

Question: Cc1ccc(C(=O)COC(=O)C2C3C=CC(C3)C2C(=O)OCC(=O)c2ccc(C)c(C)c2)cc1C (centres unmarked) was tested. Which “hERG current change (%, negative = inhibition) at 10uM” value did it give?
Answer: Its value is 11.4%.

Question: With O=S(=O)(Nc1cccc2c1CCCC2)c1ccc(Cl)cc1 as the compound, how does the “hERG current change (%, negative = inhibition) at 10uM” value read?
Answer: Its value is -9.87%.

Question: With CCOC(=O)COc1c(Cl)cc(C2NC(=S)NC(c3ccccc3)=C2C(C)=O)cc1OCC (centres unmarked) as the compound, how does the “hERG current change (%, negative = inhibition) at 10uM” value read?
Answer: The value was 7.96%.

Question: CN(Cc1cccs1)C(=O)Cn1cnc2ccccc2c1=O was tested. Which “hERG current change (%, negative = inhibition) at 10uM” value did it give?
Answer: Its value is 11.8%.

Question: For Nc1nonc1-c1noc(CCCN2C(=O)c3ccccc3C2=O)n1, which “hERG current change (%, negative = inhibition) at 10uM” value is on record?
Answer: Its value is -11%.

Question: How did the “hERG current change (%, negative = inhibition) at 10uM” value turn out when N#C/C(C(=O)N1CCOCC1)=C1\Nc2ccccc2S1 was run?
Answer: Its value is 2.1%.

Question: How did the “hERG current change (%, negative = inhibition) at 10uM” value turn out when CSc1nsc(SCc2ccc(Cl)cc2)n1 was run?
Answer: The value was 12.9%.

Question: For N#Cc1ncc(C(F)(F)F)cc1Sc1ccc(N)cc1, which “hERG current change (%, negative = inhibition) at 10uM” value is on record?
Answer: Its value is -5.49%.

Question: How did the “hERG current change (%, negative = inhibition) at 10uM” value turn out when CC1CN(c2nc(Nc3ccccc3)nc(N)c2[N+](=O)[O-])CC(C)O1 (centres unmarked) was run?
Answer: The value was -22.2%.

Question: For CSc1nnc(NC(=O)CCc2ccccc2)s1, which “hERG current change (%, negative = inhibition) at 10uM” value is on record?
Answer: Its value is -6.33%.

Question: How did the “hERG current change (%, negative = inhibition) at 10uM” value turn out when CCOc1ccccc1/C=N/Nc1nc2ccccc2o1 was run?
Answer: Its value is 15.1%.

Question: For CCn1c(CNC(=O)c2ccc(Cl)cc2)nnc1SCC(=O)NC1=NCCS1, which “hERG current change (%, negative = inhibition) at 10uM” value is on record?
Answer: The value was 18%.

Question: How did the “hERG current change (%, negative = inhibition) at 10uM” value turn out when CCOC(=O)C1=NNC2(CC(=O)N(c3cccc(C)c3)C2=O)C1 (centres unmarked) was run?
Answer: Its value is 7.7%.

Question: O=C(NN1C(=O)/C(=C/c2cccc(O)c2)SC1=S)c1ccccc1O was tested. Which “hERG current change (%, negative = inhibition) at 10uM” value did it give?
Answer: Its value is 2.92%.

Question: With N#CC1=C2SCN(Cc3ccco3)CN2C(=O)CC1c1cccc2ccccc12 (centres unmarked) as the compound, how does the “hERG current change (%, negative = inhibition) at 10uM” value read?
Answer: The value was -11.1%.

Question: With CS(=O)(=O)c1ccccc1C(=O)Nc1cc(Cl)ccc1-n1cncn1 as the compound, how does the “hERG current change (%, negative = inhibition) at 10uM” value read?
Answer: Its value is 13.4%.

Question: NC(=O)C1CCCN(Cc2c(C(=O)N3CCc4ccccc4C3)nc3ccc(Cl)cn23)C1 (centres unmarked) was tested. Which “hERG current change (%, negative = inhibition) at 10uM” value did it give?
Answer: Its value is -9.28%.

Question: Which “hERG current change (%, negative = inhibition) at 10uM” value does the source give for CCN(CC(=O)Nc1ccc(NC(C)=O)cc1)C(=O)c1cc(-c2ccccc2)nn1-c1ccccc1 here?
Answer: The value was 8.43%.

Question: CCc1c(C)nc(SCC(=O)NNC(=O)Cc2ccc(OC)cc2)[nH]c1=O was tested. Which “hERG current change (%, negative = inhibition) at 10uM” value did it give?
Answer: The value was -13.6%.

Question: For O=C(CN1CCCC1=O)N1CCOCC1, which “hERG current change (%, negative = inhibition) at 10uM” value is on record?
Answer: The value was -3.79%.

Question: With COc1ccccc1-c1cc(C(=O)NCc2ccco2)no1 as the compound, how does the “hERG current change (%, negative = inhibition) at 10uM” value read?
Answer: Its value is 4.12%.

Question: How did the “hERG current change (%, negative = inhibition) at 10uM” value turn out when O=C/C(=C\Nc1ccc(Cl)cn1)c1nc2ccccc2o1 was run?
Answer: Its value is 9.15%.

Question: O=C1CC(c2ccc(F)cc2)Cc2nc(N3CCN(c4ccccc4)CC3)ncc21 (centres unmarked) was tested. Which “hERG current change (%, negative = inhibition) at 10uM” value did it give?
Answer: Its value is 1.48%.

Question: O=C(O)C1CCCN(S(=O)(=O)c2ccc(Cl)s2)C1 (centres unmarked) was tested. Which “hERG current change (%, negative = inhibition) at 10uM” value did it give?
Answer: Its value is 4.58%.

Question: Which “hERG current change (%, negative = inhibition) at 10uM” value does the source give for COc1ccc(NC(=O)N2CCCC(C(=O)Nc3ccccc3OC)C2)cc1 (centres unmarked) here?
Answer: The value was -5.26%.

Question: With O=C(O)CSCc1nc2cccnc2n1C1CCCCC1 as the compound, how does the “hERG current change (%, negative = inhibition) at 10uM” value read?
Answer: The value was 18.6%.

Question: Cc1[nH]c2ccc(-c3nnc(SCC(=O)NCc4ccco4)n3Cc3ccccc3)cc2c1C was tested. Which “hERG current change (%, negative = inhibition) at 10uM” value did it give?
Answer: Its value is 22.5%.

Question: For O=C(Cc1ccccc1F)Nc1ccc(S(=O)(=O)N2CCCCC2)cc1, which “hERG current change (%, negative = inhibition) at 10uM” value is on record?
Answer: The value was -3.64%.

Question: Which “hERG current change (%, negative = inhibition) at 10uM” value does the source give for CN(CC(=O)Nc1ccc(F)c(F)c1F)C(=O)Cc1ccc2c(c1)OCCO2 here?
Answer: Its value is 13.1%.

Question: How did the “hERG current change (%, negative = inhibition) at 10uM” value turn out when O=C1OCC(c2ccccc2)=C1c1ccccc1[N+](=O)[O-] was run?
Answer: Its value is 15.7%.

Question: With Cc1nnc(SCC(=O)NC(=O)Nc2ccc3c(c2)OCCO3)s1 as the compound, how does the “hERG current change (%, negative = inhibition) at 10uM” value read?
Answer: Its value is 9.61%.

Question: How did the “hERG current change (%, negative = inhibition) at 10uM” value turn out when O=C(Nc1cccc2ccccc12)c1ccc(Cn2cc(Cl)cn2)cc1 was run?
Answer: The value was -7.34%.

Question: With Cc1ccc(S(=O)(=O)N2CCOCC2)cc1NC(=O)CN1CCN(C)CC1 as the compound, how does the “hERG current change (%, negative = inhibition) at 10uM” value read?
Answer: Its value is -9.15%.

Question: For CC(C)c1ccc(NC(=O)Cc2cn(C)c3ccccc23)cc1, which “hERG current change (%, negative = inhibition) at 10uM” value is on record?
Answer: Its value is 13.3%.

Question: Which “hERG current change (%, negative = inhibition) at 10uM” value does the source give for Cc1ccc(-c2nc(CS(=O)(=O)CC(=O)NCCCN3CCN(C)CC3)c(C)o2)cc1 here?
Answer: The value was 14.7%.

Question: Which “hERG current change (%, negative = inhibition) at 10uM” value does the source give for O=c1[nH]cnc2c1sc1nc(-c3ccccc3)c3c(c12)CCCC3 here?
Answer: The value was 11.4%.

Question: How did the “hERG current change (%, negative = inhibition) at 10uM” value turn out when Nc1nc(SCC(=O)NNc2c(Cl)cc(Cl)cc2Cl)n[nH]1 was run?
Answer: Its value is 6.76%.

Question: Which “hERG current change (%, negative = inhibition) at 10uM” value does the source give for O=C(O)CCCN1C(=O)c2ccc(C(=O)c3cccc([N+](=O)[O-])c3)cc2C1=O here?
Answer: Its value is 12.7%.

Question: COc1ccc2[nH]c(=O)c(CN(C)C(=O)C3CCCCC3)cc2c1 was tested. Which “hERG current change (%, negative = inhibition) at 10uM” value did it give?
Answer: The value was 2.21%.

Question: O=C(COc1ccc(Cl)cc1Br)NNC(=O)C(=O)N1CCCCC1 was tested. Which “hERG current change (%, negative = inhibition) at 10uM” value did it give?
Answer: The value was 13%.

Question: With Cc1c(Cl)cccc1NC(=S)NCc1ccc(Cl)cc1 as the compound, how does the “hERG current change (%, negative = inhibition) at 10uM” value read?
Answer: The value was -0.964%.

Question: With COc1ccc(C(C(=O)NC(C)(C)C)N(Cc2ccc(F)cc2)C(=O)CCC(=O)Nc2cc(C)on2)cc1 (centres unmarked) as the compound, how does the “hERG current change (%, negative = inhibition) at 10uM” value read?
Answer: The value was -3.04%.

Question: How did the “hERG current change (%, negative = inhibition) at 10uM” value turn out when Cc1cccc(OCCCC(=O)NNC(=O)c2ccc(F)cc2)c1 was run?
Answer: Its value is -7.21%.

Question: COc1ccc2c(c1)c(C(=O)O)c(C)n2CC(C)C was tested. Which “hERG current change (%, negative = inhibition) at 10uM” value did it give?
Answer: Its value is -13.8%.

Question: Nc1cc(-c2cccc(F)c2)nn1S(=O)(=O)c1cccc2nsnc12 was tested. Which “hERG current change (%, negative = inhibition) at 10uM” value did it give?
Answer: The value was -6.09%.

Question: With CC(C)(C)n1nnnc1C(c1ccccc1F)N(Cc1ccco1)CC1CCCO1 (centres unmarked) as the compound, how does the “hERG current change (%, negative = inhibition) at 10uM” value read?
Answer: Its value is -28.6%.

Question: Cc1ccc(S(=O)(=O)/N=C(/c2ccc(F)cc2)N2CCCC2)cc1 was tested. Which “hERG current change (%, negative = inhibition) at 10uM” value did it give?
Answer: Its value is -0.35%.

Question: With COC(=O)c1[nH]c2ccc(C)cc2c1NS(=O)(=O)c1ccc(F)c(C)c1 as the compound, how does the “hERG current change (%, negative = inhibition) at 10uM” value read?
Answer: Its value is 0.0651%.

Question: Which “hERG current change (%, negative = inhibition) at 10uM” value does the source give for CCOc1ccccc1-n1c(SCC(=O)NC(C)CC)nnc1-c1ccoc1C (centres unmarked) here?
Answer: Its value is -12.7%.

Question: N#CC1=C(N)Oc2cc(N)ccc2C1c1ccc(F)cc1 (centres unmarked) was tested. Which “hERG current change (%, negative = inhibition) at 10uM” value did it give?
Answer: Its value is -14.9%.

Question: For c1cncc(-c2nc3ccccc3o2)c1, which “hERG current change (%, negative = inhibition) at 10uM” value is on record?
Answer: Its value is -6.13%.

Question: For COC(=O)[C@@H]1C[C@]2(OC(=O)c3ccccc3)C=CC(=O)C[C@@H]2N1C(=O)OCc1ccccc1, which “hERG current change (%, negative = inhibition) at 10uM” value is on record?
Answer: The value was -14.3%.

Question: CCn1ccnc1CNC(=O)C1CCC(=O)N(Cc2ccccc2F)C1 (centres unmarked) was tested. Which “hERG current change (%, negative = inhibition) at 10uM” value did it give?
Answer: Its value is 16.3%.

Question: O=C(Nc1nc(-c2ccc([N+](=O)[O-])cc2)cs1)c1c(F)cccc1F was tested. Which “hERG current change (%, negative = inhibition) at 10uM” value did it give?
Answer: The value was 5.73%.
